± gives the standard deviation of the averaged measurements. Over roughly 33,000 sequences, “E-score (dimensionless, -0.5 to 0.5)” has its median near -0.049; the highest 2% begin near 0.37. This is one part of the list.
These sequences were tested on T1, PmTbr T-box DNA-binding domain (GST fusion) (assay: PBM E-score of 8-mer (E-score (dimensionless, -0.5 to 0.5)); Tbr is Tbrain of the sea star Patiria miniata (Pm) or the sea urchin Strongylocentrotus purpuratus (Sp); higher = stronger binding preference; most listed sequences are background and not binding sites). Conditions: the construct has about 5 more residues each side.
T1 sequence: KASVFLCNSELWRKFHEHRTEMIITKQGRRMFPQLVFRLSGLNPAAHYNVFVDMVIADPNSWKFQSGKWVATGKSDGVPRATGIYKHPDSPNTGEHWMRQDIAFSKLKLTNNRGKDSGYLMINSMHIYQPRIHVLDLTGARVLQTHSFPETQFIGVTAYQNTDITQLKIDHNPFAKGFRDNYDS
In short: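 GST-fused Tbr T-box DNA-binding domains (the whole T-box plus about five flanking residues) were expressed in BL21 E. coli at 20 °C and purified by glutathione affinity chromatography. Universal Agilent oligonucleotide arrays were made double-stranded by primer extension, incubated with 200 nM protein in PBS (pH 7.5), then scanned and quantified. Every ungapped 8-mer was scored from probe intensities. The Universal PBM Analysis Suite gave each word an enrichment E-score, averaged over duplicate arrays.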

Compared with GAGGTTAC, CCGTAAAG is lower in “PBM E-score of 8-mer” value: 0.0141 ± 0.022 for the first, -0.0628 ± 0.027 for the second.

AAATCATG and CTGGTGGA are within error of each other in “PBM E-score of 8-mer” value: -0.0852 ± 0.073 for the first, -0.159 ± 0.027 for the second.

First: GGCGCCCA
Second: AAGCACTA
The “PBM E-score of 8-mer” value of the first is higher: 0.127 ± 0.0008 for the first, -0.18 ± 0.042 for the second.

First: TATTGGCA
Second: CACTAGGA
The “PBM E-score of 8-mer” value of the first is higher: 0.234 ± 0.027 for the first, 0.00213 ± 0.093 for the second.

Going from GCTCCTTA to AACTACGA, the “PBM E-score of 8-mer” value rises from -0.1824 ± 0.00047 to -0.15 ± 0.015.

Compared with TCGCCCCA, CCACTACC is lower in “PBM E-score of 8-mer” value: 0.0572 ± 0.027 for the first, -0.118 ± 0.073 for the second.

First: GGAGCGCC
Second: CCTCCGAC
The “PBM E-score of 8-mer” value of the first is lower: 0.0573 ± 0.035 for the first, 0.141 ± 0.048 for the second.

Compared with CCCGAGCC, CTAACACA is higher in “PBM E-score of 8-mer” value: -0.0993 ± 0.081 for the first, 0.374 ± 0.035 for the second.

Going from ATGTTAGA to CTATTATA, the “PBM E-score of 8-mer” value rises from -0.236 ± 0.027 to -0.0905 ± 0.0057.

Going from AACAGGAA to CATCTGTC, the “PBM E-score of 8-mer” value rises from -0.0377 ± 0.01 to 0.288 ± 0.01.

CCCAAATC and CCAGTCCA are within error of each other in “PBM E-score of 8-mer” value: 0.0088 ± 0.069 for the first, -0.015 ± 0.051 for the second.

First: ATCACTCG
Second: CCAGGATC
The “PBM E-score of 8-mer” value of the first is higher: -0.0737 ± 0.012 for the first, -0.191 ± 0.071 for the second.

Compared with GTTTTAGA, CCTAAAGG is higher in “PBM E-score of 8-mer” value: -0.15 ± 0.029 for the first, 0.0658 ± 0.049 for the second.

AGCTGCAG and AGCAGGTC are within error of each other in “PBM E-score of 8-mer” value: 0.0642 ± 0.099 for the first, 0.0259 ± 0.014 for the second.

First: AGACTGCA
Second: AGTAAACG
The “PBM E-score of 8-mer” value of the first is lower: -0.271 ± 0.045 for the first, -0.124 ± 0.053 for the second.

First: CAAATCAC
Second: AGATGCCT
The “PBM E-score of 8-mer” value of the first is higher: 0.232 ± 0.0098 for the first, -0.123 ± 0.037 for the second.

CGATGAAA and CATATGGG are within error of each other in “PBM E-score of 8-mer” value: -0.00761 ± 0.067 for the first, 0.0281 ± 0.047 for the second.

Going from CCTCGGAC to ACTCGACG, the “PBM E-score of 8-mer” value rises from -0.199 ± 0.023 to -0.00989 ± 0.04.

Going from GCCTCCGC to GTCGCACA, the “PBM E-score of 8-mer” value rises from -0.208 ± 0.024 to 0.353 ± 0.025.

Compared with GCGCCAAA, GCCGTCCC is lower in “PBM E-score of 8-mer” value: 0.315 ± 0.017 for the first, -0.0496 ± 0.065 for the second.

CCGATTAA and AATACTTC are within error of each other in “PBM E-score of 8-mer” value: -0.00536 ± 0.017 for the first, -0.03 ± 0.011 for the second.

Going from CGTAACCC to CATTGTCC, the “PBM E-score of 8-mer” value rises from -0.0917 ± 0.035 to 0.132 ± 0.0052.

First: ACATCGTC
Second: CGGTGCAG
The “PBM E-score of 8-mer” value of the first is higher: 0.0454 ± 0.028 for the first, -0.0282 ± 0.027 for the second.

Compared with ACCTCTAC, GGACCCCA is lower in “PBM E-score of 8-mer” value: 0.0791 ± 0.0018 for the first, -0.38 ± 0.037 for the second.

Compared with CAACTTTC, GAGAGGTA is lower in “PBM E-score of 8-mer” value: 0.129 ± 0.046 for the first, -0.0451 ± 0.015 for the second.

First: GTTAACAA
Second: CTCTTTGC
The “PBM E-score of 8-mer” value of the first is higher: 0.32 ± 0.013 for the first, 0.059 ± 0.07 for the second.

First: AACAGTTC
Second: TATCTGAA
The “PBM E-score of 8-mer” value of the first is higher: 0.189 ± 0.015 for the first, -0.11 ± 0.012 for the second.

CTCGACCC and AAGACGGA are within error of each other in “PBM E-score of 8-mer” value: -0.0544 ± 0.035 for the first, -0.108 ± 0.045 for the second.

AATTTCGA and ATAGGAGC are within error of each other in “PBM E-score of 8-mer” value: -0.11 ± 0.01 for the first, -0.0935 ± 0.086 for the second.

First: GAAGAGAA
Second: CTAGACAC
The “PBM E-score of 8-mer” value of the first is lower: -0.199 ± 0.013 for the first, 0.123 ± 0.08 for the second.

Going from GTAGATTA to TGCAGGAA, the “PBM E-score of 8-mer” value falls from 0.0865 ± 0.02 to -0.153 ± 0.036.

Compared with AAAAACCG, ATAGGCTA is lower in “PBM E-score of 8-mer” value: -0.0303 ± 0.02 for the first, -0.285 ± 0.0075 for the second.

Compared with CCTAATTC, CACCTCCA is higher in “PBM E-score of 8-mer” value: 0.0429 ± 0.0097 for the first, 0.423 ± 0.0067 for the second.

CACGTGCG and TAACAACA are within error of each other in “PBM E-score of 8-mer” value: 0.28 ± 0.026 for the first, 0.254 ± 0.048 for the second.

Going from ATTAGCCG to CTTGTTGC, the “PBM E-score of 8-mer” value rises from -0.0305 ± 0.076 to 0.144 ± 0.024.

Compared with ACCATAGC, ACACGTTA is higher in “PBM E-score of 8-mer” value: 0.035 ± 0.0013 for the first, 0.3709 ± 0.0015 for the second.

Going from AAAAATTC to AAAAGCAC, the “PBM E-score of 8-mer” value rises from -0.114 ± 0.019 to 0.0928 ± 0.007.

CATGGGTA and ATAATCAG are within error of each other in “PBM E-score of 8-mer” value: -0.123 ± 0.048 for the first, -0.0873 ± 0.05 for the second.

Going from CGTATGAC to GTCTGGTA, the “PBM E-score of 8-mer” value falls from 0.00429 ± 0.046 to -0.245 ± 0.032.

GAGGACCC and GATGAAGC are within error of each other in “PBM E-score of 8-mer” value: -0.04776 ± 4.2e-05 for the first, -0.0466 ± 0.017 for the second.

Going from GGCTCGAA to TCTACCCA, the “PBM E-score of 8-mer” value falls from 0.0175 ± 0.063 to -0.139 ± 0.048.

Compared with AAGCCTGC, CACGTAAG is higher in “PBM E-score of 8-mer” value: -0.142 ± 0.0015 for the first, 0.0187 ± 0.091 for the second.

CCGCTGTC and AAATTTGC are within error of each other in “PBM E-score of 8-mer” value: 0.00332 ± 0.044 for the first, 0.0399 ± 0.12 for the second.

First: AAATACTA
Second: ATTGACAA
The “PBM E-score of 8-mer” value of the first is lower: -0.0948 ± 0.058 for the first, 0.304 ± 0.043 for the second.

TATACCGA and CCAGCAAA are within error of each other in “PBM E-score of 8-mer” value: -0.114 ± 0.0033 for the first, -0.131 ± 0.054 for the second.

Going from CAATAGGG to ACCTAGCG, the “PBM E-score of 8-mer” value rises from -0.157 ± 0.03 to 0.33 ± 0.02.

First: ATAGCTGG
Second: AGGGGCGG
The “PBM E-score of 8-mer” value of the first is lower: -0.0874 ± 0.034 for the first, 0.0193 ± 0.039 for the second.

First: AAACCCAC
Second: ACATTGTC
The “PBM E-score of 8-mer” value of the first is lower: 0.03095 ± 0.00028 for the first, 0.196 ± 0.025 for the second.

First: CGAGTCCC
Second: GTTTAAGA
The “PBM E-score of 8-mer” value of the first is higher: -0.113 ± 0.0043 for the first, -0.176 ± 0.045 for the second.

ACGCAGAA and ACAATTGA are within error of each other in “PBM E-score of 8-mer” value: 0.118 ± 0.014 for the first, 0.0544 ± 0.075 for the second.

Going from ACCGCAGC to AGTTTGAA, the “PBM E-score of 8-mer” value falls from 0.00955 ± 0.044 to -0.102 ± 0.06.

CTCTCAGC and CCCGCTCG are within error of each other in “PBM E-score of 8-mer” value: -0.00577 ± 0.0096 for the first, -0.0279 ± 0.021 for the second.

Going from CCACGGGC to ATACCAGG, the “PBM E-score of 8-mer” value rises from -0.187 ± 0.019 to -0.0947 ± 0.038.

Compared with AGATTAAC, ATAGTACG is lower in “PBM E-score of 8-mer” value: 0.0557 ± 0.048 for the first, -0.156 ± 0.029 for the second.

CAATGATC and ATTGGACA are within error of each other in “PBM E-score of 8-mer” value: -0.0911 ± 0.018 for the first, -0.089 ± 0.015 for the second.

Compared with CATCGATG, AAGCCAAG is lower in “PBM E-score of 8-mer” value: -0.0732 ± 0.025 for the first, -0.303 ± 0.048 for the second.

Compared with GGGCTACC, CTGCGACA is higher in “PBM E-score of 8-mer” value: -0.203 ± 0.011 for the first, 0.172 ± 0.015 for the second.

First: CACACGGA
Second: AGCATGCA
The “PBM E-score of 8-mer” value of the first is higher: 0.0598 ± 0.0022 for the first, -0.127 ± 0.088 for the second.

Compared with CACTAATA, AGACACCT is higher in “PBM E-score of 8-mer” value: 0.108 ± 0.074 for the first, 0.4559 ± 0.0013 for the second.

First: CTCAAGAG
Second: AGCTCTAA
The “PBM E-score of 8-mer” value of the first is higher: 0.00045 ± 0.0019 for the first, -0.225 ± 0.016 for the second.

ATATTGTA and CCTTACCG are within error of each other in “PBM E-score of 8-mer” value: -0.0543 ± 0.11 for the first, -0.114 ± 0.034 for the second.

First: ATGTAGAC
Second: TAGGATGA
The “PBM E-score of 8-mer” value of the first is lower: -0.237 ± 0.043 for the first, 0.0744 ± 0.022 for the second.

First: GTATTGTA
Second: ATAGTTAG
The “PBM E-score of 8-mer” value of the first is lower: -0.0822 ± 0.11 for the first, 0.0783 ± 0.045 for the second.

Going from CTTATCAC to GGATGCGA, the “PBM E-score of 8-mer” value falls from 0.331 ± 0.023 to 0.152 ± 0.012.

With ACCCTATA the “PBM E-score of 8-mer” value was -0.1158 ± 0.0011.
